Values marked as one replicate rest on one cluster of the flow cell; about a third of the high ones do not repeat.
Test system: ATP
Test: switch fluorescence ratio, 500 uM ATP over buffer (Cy3 cluster intensity, sum of 5 cycles each) (fold (ratio)); higher = stronger signal-on switching upon ATP binding; sequences stand for … in TCGTCGGCAGCGTCAGATGTGTATAAGAGACAGTTTTTTTTTTTTTTTTTTTTTTTTT…TC
Conditions: aptamer strand: ATP DNA aptamer (quencher-CACCTGGGGGAGTATTGCGGAGGAAGG + anchor), 100 nM annealed; ATP concentration: 500 uM; one replicate
How it was run: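 Imaging in selection buffer was followed by imaging after 15 min with 500 uM ATP at 22 °C, for Cy3-labelled switching-strand clusters annealed to 100 nM quencher-labelled ATP aptamer on a modified Illumina MiSeq flow-cell. Five of these buffer/ATP cycles ran, separated by NaOH stripping and re-annealing. The fluorescence ratio per cluster is summed target-cycle over summed buffer-cycle Cy3 intensity, averaged per switch-domain sequence; clusters outside 100-1000 RFU were removed.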
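Also: ATP exposure 15 min at 22 °C before imaging.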

GGTCATCGGC
switch fluorescence ratio: 1.05

CGTCTTTCAA
switch fluorescence ratio: 1.03

GTGGGAAATA
switch fluorescence ratio: 0.97

GGTACAGTTG
switch fluorescence ratio: 0.974

AAATTGCACG
switch fluorescence ratio: 1.05

AGGGCCCCTT
switch fluorescence ratio: 0.924

AATCCCATAT
switch fluorescence ratio: 0.996

CGAGGGTGGT
switch fluorescence ratio: 1.02

CAGAATGGTT
switch fluorescence ratio: 1

TGTACGTGCG
switch fluorescence ratio: 1.04

AGGATTTACA
switch fluorescence ratio: 0.971

TTAGATGGGC
switch fluorescence ratio: 1.02

ACTGAACGAG
switch fluorescence ratio: 1.21

TCCGGTTGTT
switch fluorescence ratio: 1.01

TCCGGAAGG
switch fluorescence ratio: 1.03

TGCGCCTTGG
switch fluorescence ratio: 1.02

CGCGATCGTG
switch fluorescence ratio: 1.04

GGCTCTTGGT
switch fluorescence ratio: 0.97

ATTAGACCTT
switch fluorescence ratio: 1.23

CTCCGGTTAT
switch fluorescence ratio: 4.29

CGTTATGGAG
switch fluorescence ratio: 1

CCTTGGTTT
switch fluorescence ratio: 1.02

ATCGTGCGAG
switch fluorescence ratio: 0.94

ACCGCACGGG
switch fluorescence ratio: 2.03

TTGCTCAGGA
switch fluorescence ratio: 0.929

TTCGCTCTAG
switch fluorescence ratio: 1.03

AATCTGGCT
switch fluorescence ratio: 1.02

GAAGCAACGT
switch fluorescence ratio: 1.07

CTTGCGGTAA
switch fluorescence ratio: 1.12

AAGCAGAGAT
switch fluorescence ratio: 0.978

GGCATTGTA
switch fluorescence ratio: 0.98

TTTCGAATAG
switch fluorescence ratio: 1.05

GTTTTCGCTG
switch fluorescence ratio: 0.973

ACTCAGTCGG
switch fluorescence ratio: 1.07

GCTCAATGCG
switch fluorescence ratio: 1.02

AGGTGGATTG
switch fluorescence ratio: 0.965

TGGTATAAGA
switch fluorescence ratio: 1.08

ACGCGGCACG
switch fluorescence ratio: 1.02

GTGTTCTG
switch fluorescence ratio: 1.02

GCATACCTAT
switch fluorescence ratio: 1.04

CGCTCGCAAA
switch fluorescence ratio: 5.48

GCTAGTGTCC
switch fluorescence ratio: 1.04

GTTGACGGCC
switch fluorescence ratio: 1.02

CTCTAGCGGA
switch fluorescence ratio: 1.11

TTTGGCTACT
switch fluorescence ratio: 0.977

CAATAAGGCA
switch fluorescence ratio: 0.947

TTCAGCCGGG
switch fluorescence ratio: 1.04

GTTAACCGCA
switch fluorescence ratio: 1.38

CAGTATTGG
switch fluorescence ratio: 0.976

ACTTCACAGC
switch fluorescence ratio: 1.44

GGACTGACAC
switch fluorescence ratio: 1.32

AGATCTGCGG
switch fluorescence ratio: 0.957

AAATTTGG
switch fluorescence ratio: 0.96

CTCTCGGGAC
switch fluorescence ratio: 1.8

CTGCAGTGTC
switch fluorescence ratio: 1.68

TTTCTGGG
switch fluorescence ratio: 0.957

AATGACAGCA
switch fluorescence ratio: 1.06

TTCCAGTTTA
switch fluorescence ratio: 0.947

AATACTCGGT
switch fluorescence ratio: 1.05

AACAAGGGGT
switch fluorescence ratio: 1.02

AGTGAGCAAG
switch fluorescence ratio: 1

TTTGCAAATC
switch fluorescence ratio: 1.14

CAGAAGACGC
switch fluorescence ratio: 1.02

AATGCCGCGG
switch fluorescence ratio: 1

GGAGCGAGTG
switch fluorescence ratio: 1.01

GTTTGTTAA
switch fluorescence ratio: 1.04

TGGGTATTAA
switch fluorescence ratio: 1.03

GGTTAGGGCC
switch fluorescence ratio: 1.2

GGAAGGTCTC
switch fluorescence ratio: 1.03

GCTCCCCGAT
switch fluorescence ratio: 1.9

ATCGAATGGC
switch fluorescence ratio: 1.02

TACGTATTAA
switch fluorescence ratio: 1.17

AGGCTTGTCG
switch fluorescence ratio: 1.03

CCTGCGCTAG
switch fluorescence ratio: 4.91

GTTGGGTTTA
switch fluorescence ratio: 1.01

GTTAAATGTT
switch fluorescence ratio: 0.987

AGCGCATACA
switch fluorescence ratio: 1.5

AATTCGATGG
switch fluorescence ratio: 1.02

AATATTGTCA
switch fluorescence ratio: 1.02

GCAAGGACTG
switch fluorescence ratio: 1.03

ACACTTATAA
switch fluorescence ratio: 1.01

ACATCTCAGA
switch fluorescence ratio: 0.983

AATGTATGCA
switch fluorescence ratio: 0.974

CACTTGATTG
switch fluorescence ratio: 1.03

CTCTGGGTAT
switch fluorescence ratio: 1.06

AGATCAGCAT
switch fluorescence ratio: 1.03

GCTTCCAATT
switch fluorescence ratio: 1.07

GCCGCGCTAC
switch fluorescence ratio: 4.01

TCGTACAGG
switch fluorescence ratio: 1.01

GCGTGACTTA
switch fluorescence ratio: 0.996

TAACTGGTGA
switch fluorescence ratio: 1.07

GCACTCCCGC
switch fluorescence ratio: 1.47

GACTGTGGCC
switch fluorescence ratio: 1.05

CACAGTAGGA
switch fluorescence ratio: 1.12

CTTCAGCTTG
switch fluorescence ratio: 0.985

GGGGCACATG
switch fluorescence ratio: 0.983

AGATTAAGAC
switch fluorescence ratio: 1.01

TGACCTCCCG
switch fluorescence ratio: 1.08

CCACACGGGC
switch fluorescence ratio: 1.13

CCTCACATCA
switch fluorescence ratio: 1.28

TGATGTGCGG
switch fluorescence ratio: 0.987

GCTCTATCAA
switch fluorescence ratio: 1.13

CAGTCACGGG
switch fluorescence ratio: 1.02

AATGACCACA
switch fluorescence ratio: 1.04

GTCGCACTTA
switch fluorescence ratio: 0.987

GTGAGGGCGT
switch fluorescence ratio: 1.01

GGACTGCCAC
switch fluorescence ratio: 1.26

GAGGCTTCGG
switch fluorescence ratio: 0.957

GACCTTCGTG
switch fluorescence ratio: 0.993

ACAGTTTCGC
switch fluorescence ratio: 1.02

TCGCACCTCG
switch fluorescence ratio: 1.15

CCTTGGGTTC
switch fluorescence ratio: 2.21

AATTGCTCTA
switch fluorescence ratio: 0.951

TGGGCTTGCG
switch fluorescence ratio: 0.985

AGCGTGTTTC
switch fluorescence ratio: 1.02

GTTCCATCGG
switch fluorescence ratio: 1.02

AGAAGTGGTT
switch fluorescence ratio: 0.988

CGAGTAAATT
switch fluorescence ratio: 0.998

GTTGAGCATA
switch fluorescence ratio: 1.03

AACGAGACGT
switch fluorescence ratio: 1.1

GAAAAAAGA
switch fluorescence ratio: 0.992

AGGGGCACTT
switch fluorescence ratio: 1.01

CTTTATACA
switch fluorescence ratio: 0.982

CAAGTATAAG
switch fluorescence ratio: 0.961

CCGTAGAGGT
switch fluorescence ratio: 1.36

CGTTGGGCTA
switch fluorescence ratio: 1.09

CTCTAAAAGG
switch fluorescence ratio: 1.04

CAATGTGGTG
switch fluorescence ratio: 0.996

CCATTGGACA
switch fluorescence ratio: 0.995

GGGGTAGTAT
switch fluorescence ratio: 0.971

GTAGGTAGAT
switch fluorescence ratio: 0.974

AGGTCCGTGG
switch fluorescence ratio: 1.03

TAGGATGTTA
switch fluorescence ratio: 1

GAGAGAACGG
switch fluorescence ratio: 0.98

CCTTAGCGA
switch fluorescence ratio: 2.02

AAGCGGAGGT
switch fluorescence ratio: 1

GATTTTGATG
switch fluorescence ratio: 1.03

ATGTTACGGT
switch fluorescence ratio: 1.07

GGGTATCAAA
switch fluorescence ratio: 1

CTTGGGAAAG
switch fluorescence ratio: 0.984

ATTCCAGGCA
switch fluorescence ratio: 1.03

ATCTCAGCTT
switch fluorescence ratio: 1.03

TATTATAATG
switch fluorescence ratio: 0.983

TTGTCTGGCA
switch fluorescence ratio: 0.984

TTAATTTAGA
switch fluorescence ratio: 0.936

TTTTGAACGG
switch fluorescence ratio: 0.974

TACCAAGCGC
switch fluorescence ratio: 1.01

ATCATAAGTG
switch fluorescence ratio: 1.07

AATGAGGTCC
switch fluorescence ratio: 0.948

AGTCTTTCGT
switch fluorescence ratio: 1

TCTTTACGA
switch fluorescence ratio: 1.05

CCATAGCGGA
switch fluorescence ratio: 2.72

TCGTTGGTTC
switch fluorescence ratio: 0.949

TTGCTAATAA
switch fluorescence ratio: 1.22

ACGGATTATC
switch fluorescence ratio: 1.32

GGATCATTTG
switch fluorescence ratio: 0.963

TAGTTGTCTG
switch fluorescence ratio: 0.995

CTCCTAGGAA
switch fluorescence ratio: 1.12

AGAGAGGTAG
switch fluorescence ratio: 0.922

ATCACACCGG
switch fluorescence ratio: 1.05

ATTGCGTGGC
switch fluorescence ratio: 1.03

AAAGAAATGC
switch fluorescence ratio: 1

TAGCCGGCCC
switch fluorescence ratio: 1

AGGCTGATTG
switch fluorescence ratio: 0.937

ACTTGTACTG
switch fluorescence ratio: 1.13

TCTGCAGGCG
switch fluorescence ratio: 1.05

TGGTGTAGT
switch fluorescence ratio: 1.03

AGAGGACTGT
switch fluorescence ratio: 0.998

GCGACCAGTC
switch fluorescence ratio: 1.05

ACCCAGGAAA
switch fluorescence ratio: 1.06

GGGTTAATAG
switch fluorescence ratio: 0.998

AGCGAATCTA
switch fluorescence ratio: 1.02

TGTATATTCA
switch fluorescence ratio: 1.05

CGATTCTAAT
switch fluorescence ratio: 0.965

CTCGGCCGCC
switch fluorescence ratio: 1.02

ACGCGTGTGA
switch fluorescence ratio: 1.02

CGCGATTGAT
switch fluorescence ratio: 1.03

CTCAGACCAC
switch fluorescence ratio: 1.07

TGGGATGTCC
switch fluorescence ratio: 1.03

TTGTCAGCCG
switch fluorescence ratio: 0.955

CTAAAACAT
switch fluorescence ratio: 1.04

TGCTTGCTGA
switch fluorescence ratio: 1.01

TGGTACTCCG
switch fluorescence ratio: 1.05

TTTCCCGGCC
switch fluorescence ratio: 0.992

TAAAGACGTG
switch fluorescence ratio: 1.03

ATAAGGCAC
switch fluorescence ratio: 1.04

AGCGTAAGTT
switch fluorescence ratio: 0.992

CCTTAGAGCG
switch fluorescence ratio: 1.03

AACACCTCTA
switch fluorescence ratio: 1.04

TTCATTGCGT
switch fluorescence ratio: 0.939

CTCAGACATA
switch fluorescence ratio: 1.07

TTTCTCATCG
switch fluorescence ratio: 0.962

TTTTCATAGT
switch fluorescence ratio: 1.01

TTACCCAAAG
switch fluorescence ratio: 1.03

CCTGTGTGGA
switch fluorescence ratio: 0.965

CCCTAAATTG
switch fluorescence ratio: 0.959

ACACAAGTTG
switch fluorescence ratio: 0.998

CTATCAGTTC
switch fluorescence ratio: 1

GACTCCATTA
switch fluorescence ratio: 1.08

TACAGTGCGC
switch fluorescence ratio: 0.944

TTCACCCTTG
switch fluorescence ratio: 1.14

From the supplement of paper PMC10126150
